Source: article PMC4336329 (PLoS ONE, 2015)
Hit rate of the full screen: of about 310,000 compounds, about 14,000 (4.5%) showed an effect of 50% or more. The effect is printed as a negative number. The list shows a part of the results.

Target: human ether-à-go-go-related gene (hERG) potassium channel (human, UniProt Q12809)
Assay: primary screen, population patch clamp on CHO cells stably expressing hERG
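Note: peak tail current of the secondary pulse compared with the same well before compound.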

human ether-à-go-go-related gene (hERG) potassium channel, sequence (Q12809 whole entry, looked up): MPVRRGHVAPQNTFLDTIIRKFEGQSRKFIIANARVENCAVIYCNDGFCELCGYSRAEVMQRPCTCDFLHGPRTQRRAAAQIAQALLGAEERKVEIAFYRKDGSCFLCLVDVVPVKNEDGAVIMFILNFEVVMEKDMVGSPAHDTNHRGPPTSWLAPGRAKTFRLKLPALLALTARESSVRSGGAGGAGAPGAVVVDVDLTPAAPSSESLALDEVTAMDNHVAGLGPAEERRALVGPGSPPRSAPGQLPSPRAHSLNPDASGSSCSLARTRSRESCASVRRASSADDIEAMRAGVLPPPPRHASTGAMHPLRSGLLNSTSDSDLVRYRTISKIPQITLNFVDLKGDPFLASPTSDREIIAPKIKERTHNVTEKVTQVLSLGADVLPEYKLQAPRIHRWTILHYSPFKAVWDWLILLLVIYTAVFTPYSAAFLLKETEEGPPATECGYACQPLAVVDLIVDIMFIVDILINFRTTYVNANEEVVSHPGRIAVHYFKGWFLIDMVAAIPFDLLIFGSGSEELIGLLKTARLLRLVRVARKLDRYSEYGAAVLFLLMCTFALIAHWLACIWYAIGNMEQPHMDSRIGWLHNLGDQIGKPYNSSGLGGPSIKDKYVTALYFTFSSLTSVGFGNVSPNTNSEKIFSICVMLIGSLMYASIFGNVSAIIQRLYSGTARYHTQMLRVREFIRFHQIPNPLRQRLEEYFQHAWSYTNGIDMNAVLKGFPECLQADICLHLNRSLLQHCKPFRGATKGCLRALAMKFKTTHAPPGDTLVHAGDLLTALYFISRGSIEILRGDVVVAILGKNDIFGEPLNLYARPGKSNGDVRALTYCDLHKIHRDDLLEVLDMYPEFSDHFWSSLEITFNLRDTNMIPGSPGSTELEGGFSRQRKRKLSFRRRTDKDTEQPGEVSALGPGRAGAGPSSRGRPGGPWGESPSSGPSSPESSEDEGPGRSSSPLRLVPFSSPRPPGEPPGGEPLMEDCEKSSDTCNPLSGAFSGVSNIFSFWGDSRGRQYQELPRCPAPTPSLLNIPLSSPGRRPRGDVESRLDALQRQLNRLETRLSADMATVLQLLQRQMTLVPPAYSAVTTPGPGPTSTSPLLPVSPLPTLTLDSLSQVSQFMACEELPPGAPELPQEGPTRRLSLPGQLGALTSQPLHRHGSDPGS

Row | Structure (SMILES) | hERG current change (%, negative = inhibition) at 10uM [%]
1 | N/C(=N\OC(=O)COc1ccc([N+](=O)[O-])cc1)c1cccnc1 | 1.41
2 | CCOC(=O)c1c(-c2ccc(OC)cc2)csc1NC(=O)CSc1ncnc2sccc12 | 2.51
3 | Cc1cc(C)c(C(=O)COC(=O)Cn2c(C)csc2=O)cc1C | 8.61
4 | Fc1ccccc1CCNc1c2c(nc3ncnn13)CCCC2 | -17.4
5 | C=CCNC(=S)Nc1sc2c(c1C(N)=O)CCCC2 | 1.2
6 | CCOC(=O)C1=C(C)N(c2ccc(OC)cc2)C(=O)/C1=C\c1cccs1 | -5.96
7 | O=C(/C(=C/c1ccc(Cl)cc1)c1nc2ccccc2[nH]1)c1ccccc1 | 7.41
8 | CCOC(=O)Cn1nnnc1CN(CCc1ccccc1)Cc1cc2cc(CC)ccc2[nH]c1=O | -4.43
9 | COc1ccc(S(=O)(=O)N2CCCCC2)cc1NC(=O)[C@@H]1CCCN1C(=O)c1cccs1 | -18.9
10 | CCOC(=O)N1CCN(S(=O)(=O)c2ccc(F)c(C(=O)Nc3ccc(C)c(Cl)c3)c2)CC1 | -13.5
11 | C#CCOc1coc(COC(=O)c2ccccc2)cc1=O | -9.45
12 | CN(C)C(=O)CSc1ncnc2scc(-c3ccccc3)c12 | -9.31
13 | CCOC(=O)c1ccc(N2C(=O)CC(Sc3nc(C)cc(C)n3)C2=O)cc1 (stereo not shown) | 13.9
14 | CNC(=S)N/N=C/c1cn(Cc2ccc(F)cc2)c2ccccc12 | -4.59
15 | Cc1cc(=O)c(C(=O)O)nn1-c1ccccc1C(F)(F)F | 4.67
16 | N#Cc1ccccc1OCC(=O)Nc1cccc(S(=O)(=O)N2CCCCCC2)c1 | -25.2
17 | Cc1cc(C)nc(/N=C(\N)Nc2ccc(OCCC(C)C)cc2)n1 | -71.8
18 | Cc1c(C(=O)Nc2nnc(C(F)(F)F)s2)oc2ccccc12 | 13.1
19 | COCC(=O)N(CCc1ccc(OC)c(OC)c1)Cc1cc2cc(C)ccc2nc1Cl | -15.9
20 | O=Cc1cn(CCOc2ccccc2)c2ccccc12 | 4.98
21 | Cc1ccc(-n2c(SCc3ccc(C(=O)O)cc3)nnc2-c2ccncc2)cc1 | 4.15
22 | CCCn1nnc(NCc2ccc(OCc3cccs3)c(OC)c2)n1 | 3.16

Row | Structure (SMILES) | hERG current change (%, negative = inhibition) at 10uM [%]
23 | O=C(CSc1ncc(-c2ccccc2)n1C1CCCC1)N1CCc2ccccc21 | -1.34
24 | O=C(C1CC1)N1N=C(c2ccccc2)CC1(O)C(F)(F)F (stereo not shown) | 13.2
25 | COCCNC(=O)c1ccc2c(c1)nc(C)n2-c1cc(OC)c(OC)c(OC)c1 | 3.81
26 | CCCCNC(=O)C1(NC(=O)Nc2ccccc2)CCCCC1 | -2.54
27 | CC(C)[C@H](NC(=O)OCc1ccccc1)C(=O)OCC(=O)NCCc1ccccc1 | -37
28 | CCCC(=O)Nc1nc2ccc(OCC)cc2s1 | 2.2
29 | O=C(CN1C(=O)NC2(CCCCCC2)C1=O)N1CCN(S(=O)(=O)c2ccc(Cl)cc2)CC1 | -23.9
30 | O=C(Nc1ccccc1N1CCCC1)C1=COCCO1 | -8.32
31 | CC(C)C(=O)Nc1ccc(NC(=O)c2ccc(COc3ccccc3)cc2)cc1 | 16.3
32 | COc1ccc(-n2cnnc2SCC(=O)Nc2cc(S(=O)(=O)N3CCCCC3)ccc2C)cc1 | -84
33 | COc1ccc(-c2nn(C)c(=O)c3ccccc23)cc1CNC(=O)NC1CCCCC1 | -26.5
34 | COc1ccc(-c2csc(Nc3ncccc3C)n2)cc1OC | -3.62
35 | CCOc1cc(S(=O)(=O)NCc2ccc3c(c2)OCO3)c(C)cc1C | -8.62
36 | CCCCC(=O)NC(Nc1cc(C)ccn1)(C(=O)OCC)C(F)(F)F (stereo not shown) | 2.5
37 | C/C(=N\NC(=O)CCCCCNC(=O)c1ccccc1)c1ccccc1O | -5.61
38 | COc1ccc(-c2ccc(OC)c([C@H]3[C@H]4C=CC[C@@H](C)[C@@H]4C(=O)N3Cc3ccccc3)c2)cc1C | 11.8
39 | COc1ccccc1N1CCN(S(=O)(=O)c2ccc(NC(C)=O)cc2)CC1 | -22.7
40 | CC(=O)Nc1ccc(S(=O)(=O)N(C)c2ccc(O)cc2)cc1 | 2.53
41 | CC(=O)c1ccccc1OCCCCN1CCCCC1.O=C(O)C(=O)O | -59.5
42 | CCCCN1CC(=O)N2[C@H]3c4cc(Br)ccc4OC[C@@H]3[C@H](C(=O)OCC)[C@]2(C)C1=O | -21.9
43 | COc1cc(-c2nnc(NC(=O)c3ccco3)o2)cc(OC)c1OC | -2.51
44 | CCOC(=O)c1c(C)oc2ccc(OC(=O)N3CCOCC3)cc12 | -16.1

Row | Structure (SMILES) | hERG current change (%, negative = inhibition) at 10uM [%]
45 | CCOc1ccc(N(C(=O)CNC(=O)c2cccs2)C(C(=O)NCC2CCCO2)c2ccc(OC)c(OC)c2)cc1 (stereo not shown) | -5.73
46 | CC1CN(C(=O)COC(=O)c2ccc(Cl)nc2)CC(C)O1 (stereo not shown) | 6.41
47 | CCCCc1ccc(NC(=S)NCc2ccccc2OC)cc1 | 7.58
48 | CCOC(=O)C1CCN(C(=O)c2c(-c3c(F)cccc3Cl)noc2C)CC1 | -6.78
49 | COc1cc(S(=O)(=O)NCC2OCCc3ccccc32)ccc1-n1cnnn1 (stereo not shown) | -17.2
50 | CCOCc1nnc(NC(C)=O)s1 | 8.81
51 | Cc1nc(C(=O)NC2CCCCC2)sc1C1(C)CC(c2cccc([N+](=O)[O-])c2)=NO1 (stereo not shown) | 4.11
52 | CCNC(=O)CC(=O)Nc1ccccc1C(=O)O | 7.78
53 | CCc1nnc2cccc(Cl)n12 | 25.9
54 | Cc1ccc(CSCCNC(=O)c2ccc(Cl)c(S(=O)(=O)N3CCOCC3)c2)cc1 | -40.5
55 | COc1ccc(C(=O)COC(=O)/C=C/c2ccccc2)c(OC)c1 | 13.7
56 | Cc1ccc(S(=O)(=O)CCC(=O)NCCN2C(=O)S/C(=C\c3ccccc3)C2=O)cc1 | 5.86
57 | COC(=O)c1ccccc1C(=O)c1cccc2ccccc12 | 10.8
58 | COc1cc(Cl)c(C)cc1NC(=O)c1ccccc1NC(=O)CN1CCOCC1 | -58.7
59 | Cc1cc2n(n1)C(c1ccc(N(C)C)cc1)Nc1ccccc1-2 (stereo not shown) | -12.1
60 | COc1cccc(C(=O)Nc2ccc(NC(=O)C(C)(C)C)cn2)c1 | 0.381
61 | Nc1ccc(S(=O)(=O)NCc2ccccn2)cc1 | -1.59
62 | CCOc1ccc(C(C)NC(=O)CCC(=O)O)cc1 (stereo not shown) | -2.57
63 | CC(=O)Nc1ccc(NC2=C/C(=N/S(=O)(=O)c3cccs3)c3ccccc3C2=O)cc1 | 31.2
64 | Cc1ccc(C(=O)NCCCNC(=O)Cc2ccccc2)cn1 | 19.6
65 | CC(=O)c1cc(NC(=O)c2cccc(C(F)(F)F)c2)c(=O)oc1C | 1.42
66 | N#CC(C#N)=Cc1ccc(OCC(=O)N2CCOCC2)cc1 | -5.53

Row | Structure (SMILES) | hERG current change (%, negative = inhibition) at 10uM [%]
67 | CC1(C)C=C(c2ccc(O)cc2)CC(C)(C)N1 | -4.44
68 | O=C(O)c1ccc(Cn2cc(Cl)cn2)cc1 | 18.7
69 | COc1cc(C2C(Oc3ccccc3C)C(=O)N2Cc2ccc(F)cc2)cc(OC)c1OC (stereo not shown) | -5.54
70 | CC(=O)NCCOc1cccc2cccnc12 | 18.7
71 | Cc1nnc(SCC(=O)c2ccc([N+](=O)[O-])cc2)s1 | -27.4
72 | CN(C)c1ccc(C(=O)N/N=C/C23CC[C@@H](O)CC2(O)CC[C@@H]2[C@@H]3CCC3(C)C(C4=CC(=O)OC4)CCC23O)cc1 (stereo partly shown) | 5.94
73 | O=C(COC(=O)c1cc(-c2cccc(Br)c2)nc2ccccc12)NCC1CCCO1 (stereo not shown) | 8.76
74 | CNCCOc1ccccc1OC(C)C.O=C(O)C(=O)O | 14
75 | COc1ccc(C(CC(=O)N2CCN(C)CC2)NC(=O)C(F)(F)F)cc1 (stereo not shown) | 5.21
76 | CC(C)N=C(N)N=C(N)Nc1ccc(Cl)cc1.Cl | -1.73
77 | CC(C)(C)SCCNC(=O)/C=C/c1ccccc1 | -2.53
78 | N#C/C(=C(/O)c1ccc([N+](=O)[O-])o1)c1nc2ccccc2[nH]1 | 21.9
79 | Cc1cccc(N(CC(O)CN2CCOCC2)S(=O)(=O)c2ccccc2)c1 (stereo not shown) | -1.7
80 | COc1cc(S(=O)(=O)NCCOC23CC4CC(CC(C4)C2)C3)c(OC)cc1Cl | 5.03
81 | O=C(NC1CC1)C1CCN(C2CCN(C(=O)/C=C/c3cccc(F)c3F)CC2)CC1 | -22.1
82 | COc1ccc(C(=O)Nc2ccccc2C(=O)Nc2ccc(C(=O)O)cc2)cc1 | 16.7
83 | Cc1cc(S(=O)(=O)N2CCC3(CC2)OCCN3S(=O)(=O)c2cccs2)ccc1F | -19.4
84 | COc1ccccc1NC(=O)N(Cc1cc2cc(OC)c(OC)cc2[nH]c1=O)CC1CCCO1 (stereo not shown) | -9.13
85 | CC(C)NC(=O)CC(=O)NN=C1CCCCC1 | 12.8
86 | N/C(COc1ccc(F)cc1)=N\NC(=O)c1cccnc1Oc1ccccc1 | -21.1
87 | CCC1(C)Cc2ccccc2-c2nc3n(c(=O)c21)CCS3 (stereo not shown) | 15.3
88 | CC(C)(C)OC(=O)N1CCN(C(=O)c2cccnc2Cl)CC1 | 2.91
